PMC9911399, “Two distinct binding modes provide the RNA-binding protein RbFox with extraordinary sequence specificity”
Numbering of substitutions follows the chain as printed; changes in the protein carry UniProt numbers. The list shows a part of the results.

T1: RBFOX1 RRM RbFoxmut (Fox-RRM*) (Homo sapiens, UniProt Q9NWB1 109-208, R118D;E147R;N151S;E152T)
T1 sequence: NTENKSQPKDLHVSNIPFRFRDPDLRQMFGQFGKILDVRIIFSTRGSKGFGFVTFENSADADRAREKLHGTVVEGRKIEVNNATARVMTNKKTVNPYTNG

B1: ACUGAGG (DNA:RNA)
RNA: GGGAGACCGGAAUUCAGAUUGUCCACUGAGGUUAAAUCCCGUCGUAGCCACCA
DNA 1: CAATCTGAATTCCGGTCTCCC
DNA 2: TGGTGGCTACGACGGGATT
B2: AAGGUGG (DNA:RNA)
RNA: B1 RNA with C26A, U27G, A29U
DNA 1: CAATCTGAATTCCGGTCTCCC
DNA 2: TGGTGGCTACGACGGGATT
B3: GUCCCCC (DNA:RNA)
RNA: GGGAGACCGGAAUUCAGAUUGUCCGUCCCCCUUAAAUCCCGUCGUAGCCACCA
DNA 1: CAATCTGAATTCCGGTCTCCC
DNA 2: TGGTGGCTACGACGGGATT
B4: CGCAGAU (DNA:RNA)
RNA: B3 RNA with G25C, U26G, C28A, C29G, C30A, C31U
DNA 1: CAATCTGAATTCCGGTCTCCC
DNA 2: TGGTGGCTACGACGGGATT
B5: GCCUGCC (DNA:RNA)
RNA: B3 RNA with U26C, C28U, C29G
DNA 1: CAATCTGAATTCCGGTCTCCC
DNA 2: TGGTGGCTACGACGGGATT
B6: UAUAAGC (DNA:RNA)
RNA: B1 RNA with A25U, C26A, G28A, G31C
DNA 1: CAATCTGAATTCCGGTCTCCC
DNA 2: TGGTGGCTACGACGGGATT
B7: UCCAAAU (DNA:RNA)
RNA: B1 RNA with A25U, U27C, G28A, G30A, G31U
DNA 1: CAATCTGAATTCCGGTCTCCC
DNA 2: TGGTGGCTACGACGGGATT
B8: CUGAACU (DNA:RNA)
RNA: B3 RNA with G25C, C27G, C28A, C29A, C31U
DNA 1: CAATCTGAATTCCGGTCTCCC
DNA 2: TGGTGGCTACGACGGGATT
B9: CAGAGCA (DNA:RNA)
RNA: B3 RNA with G25C, U26A, C27G, C28A, C29G, C31A
DNA 1: CAATCTGAATTCCGGTCTCCC
DNA 2: TGGTGGCTACGACGGGATT
B10: CCGUUCA (DNA:RNA)
RNA: B1 RNA with A25C, U27G, G28U, A29U, G30C, G31A
DNA 1: CAATCTGAATTCCGGTCTCCC
DNA 2: TGGTGGCTACGACGGGATT
B11: AUAACCC (DNA:RNA)
RNA: B3 RNA with G25A, C27A, C28A
DNA 1: CAATCTGAATTCCGGTCTCCC
DNA 2: TGGTGGCTACGACGGGATT
B12: GCUCGUC (DNA:RNA)
RNA: B3 RNA with U26C, C27U, C29G, C30U
DNA 1: CAATCTGAATTCCGGTCTCCC
DNA 2: TGGTGGCTACGACGGGATT
B13: UCUUUCC (DNA:RNA)
RNA: B1 RNA with A25U, G28U, A29U, G30C, G31C
DNA 1: CAATCTGAATTCCGGTCTCCC
DNA 2: TGGTGGCTACGACGGGATT
B14: CCGAGAU (DNA:RNA)
RNA: B1 RNA with A25C, U27G, G28A, A29G, G30A, G31U
DNA 1: CAATCTGAATTCCGGTCTCCC
DNA 2: TGGTGGCTACGACGGGATT
B15: CCCGGGC (DNA:RNA)
RNA: B1 RNA with A25C, U27C, A29G, G31C
DNA 1: CAATCTGAATTCCGGTCTCCC
DNA 2: TGGTGGCTACGACGGGATT
B16: AGACUGC (DNA:RNA)
RNA: B1 RNA with C26G, U27A, G28C, A29U, G31C
DNA 1: CAATCTGAATTCCGGTCTCCC
DNA 2: TGGTGGCTACGACGGGATT
B17: AGAUCUU (DNA:RNA)
RNA: B1 RNA with C26G, U27A, G28U, A29C, G30U, G31U
DNA 1: CAATCTGAATTCCGGTCTCCC
DNA 2: TGGTGGCTACGACGGGATT
B18: UCCCGAC (DNA:RNA)
RNA: B3 RNA with G25U, U26C, C29G, C30A
DNA 1: CAATCTGAATTCCGGTCTCCC
DNA 2: TGGTGGCTACGACGGGATT
B19: GGGUGGC (DNA:RNA)
RNA: B3 RNA with U26G, C27G, C28U, C29G, C30G
DNA 1: CAATCTGAATTCCGGTCTCCC
DNA 2: TGGTGGCTACGACGGGATT
B20: GGCCUUU (DNA:RNA)
RNA: B3 RNA with U26G, C29U, C30U, C31U
DNA 1: CAATCTGAATTCCGGTCTCCC
DNA 2: TGGTGGCTACGACGGGATT
B21: UUUGCUG (DNA:RNA)
RNA: B1 RNA with A25U, C26U, A29C, G30U
DNA 1: CAATCTGAATTCCGGTCTCCC
DNA 2: TGGTGGCTACGACGGGATT
B22: GUCCACU (DNA:RNA)
RNA: B3 RNA with C29A, C31U
DNA 1: CAATCTGAATTCCGGTCTCCC
DNA 2: TGGTGGCTACGACGGGATT
B23: GUAGCCG (DNA:RNA)
RNA: B3 RNA with C27A, C28G, C31G
DNA 1: CAATCTGAATTCCGGTCTCCC
DNA 2: TGGTGGCTACGACGGGATT
B24: AGGCGAU (DNA:RNA)
RNA: B1 RNA with C26G, U27G, G28C, A29G, G30A, G31U
DNA 1: CAATCTGAATTCCGGTCTCCC
DNA 2: TGGTGGCTACGACGGGATT
B25: UCCAGCU (DNA:RNA)
RNA: B3 RNA with G25U, U26C, C28A, C29G, C31U
DNA 1: CAATCTGAATTCCGGTCTCCC
DNA 2: TGGTGGCTACGACGGGATT
B26: ACCUUCU (DNA:RNA)
RNA: B1 RNA with U27C, G28U, A29U, G30C, G31U
DNA 1: CAATCTGAATTCCGGTCTCCC
DNA 2: TGGTGGCTACGACGGGATT
B27: UGCGGGU (DNA:RNA)
RNA: B1 RNA with A25U, C26G, U27C, A29G, G31U
DNA 1: CAATCTGAATTCCGGTCTCCC
DNA 2: TGGTGGCTACGACGGGATT
B28: CAAUAAU (DNA:RNA)
RNA: B1 RNA with A25C, C26A, U27A, G28U, G30A, G31U
DNA 1: CAATCTGAATTCCGGTCTCCC
DNA 2: TGGTGGCTACGACGGGATT
B29: CGCGUCG (DNA:RNA)
RNA: B1 RNA with A25C, C26G, U27C, A29U, G30C
DNA 1: CAATCTGAATTCCGGTCTCCC
DNA 2: TGGTGGCTACGACGGGATT
B30: GGCAGAC (DNA:RNA)
RNA: B3 RNA with U26G, C28A, C29G, C30A
DNA 1: CAATCTGAATTCCGGTCTCCC
DNA 2: TGGTGGCTACGACGGGATT
B31: ACACGUC (DNA:RNA)
RNA: B1 RNA with U27A, G28C, A29G, G30U, G31C
DNA 1: CAATCTGAATTCCGGTCTCCC
DNA 2: TGGTGGCTACGACGGGATT

What follows are binders tested against T1, RBFOX1 RRM RbFoxmut (Fox-RRM*) (assay: EMSA; HiTS-Eq, 1 nM pool, 10 min; buffer printed only for the single-RNA assays: 10 mM Tris pH 7.5, 150 mM NaCl, 3.4 mM EDTA, 0.001% NP-40, 30 C). Conditions: tags: His6 N-terminal (pET28a); label: 5' 32P.
Method in brief: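 These values rest on relative association constants, computed from read-count changes of each RNA species versus the control reaction and normalised to the cognate motif. Reads came from free RNA recovered by 8% native PAGE after purified RbFox RRM (wild type or mutant) at increasing concentrations was equilibrated for 10 min in 50 µL with 1 nM of a 5′-radiolabelled pool with 7 randomized nucleotides and DNA-annealed flanks.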

First: B1
Second: B2
The binding signal of the first is lower: 0.0777 KA relative to UGCAUGU for the first, 0.101 KA relative to UGCAUGU for the second.

First: B3
Second: B4
The binding signal of the first is lower: 0.0401 KA relative to UGCAUGU for the first, 0.105 KA relative to UGCAUGU for the second.

First: B5
Second: B6
The binding signal of the first is higher: 0.176 KA relative to UGCAUGU for the first, 0.0698 KA relative to UGCAUGU for the second.

First: B7
Second: B8
The binding signal of the first is lower: 0.0505 KA relative to UGCAUGU for the first, 0.0766 KA relative to UGCAUGU for the second.

First: B9
Second: B10
The binding signal of the first is lower: 0.101 KA relative to UGCAUGU for the first, 0.124 KA relative to UGCAUGU for the second.

First: B11
Second: B12
The binding signal of the first is lower: 0.0834 KA relative to UGCAUGU for the first, 0.127 KA relative to UGCAUGU for the second.

First: B13
Second: B14
The binding signal of the first is lower: 0.0389 KA relative to UGCAUGU for the first, 0.096 KA relative to UGCAUGU for the second.

Compared with B15, B16 is higher in binding signal: 0.0607 KA relative to UGCAUGU for the first, 0.0825 KA relative to UGCAUGU for the second.

First: B17
Second: B18
The binding signal of the first is higher: 0.0706 KA relative to UGCAUGU for the first, 0.0609 KA relative to UGCAUGU for the second.

First: B19
Second: B20
The binding signal of the first is higher: 0.122 KA relative to UGCAUGU for the first, 0.057 KA relative to UGCAUGU for the second.

Compared with B21, B22 is lower in binding signal: 0.133 KA relative to UGCAUGU for the first, 0.0788 KA relative to UGCAUGU for the second.

Compared with B23, B24 is lower in binding signal: 0.116 KA relative to UGCAUGU for the first, 0.0529 KA relative to UGCAUGU for the second.

Compared with B25, B26 is lower in binding signal: 0.0685 KA relative to UGCAUGU for the first, 0.0463 KA relative to UGCAUGU for the second.

First: B27
Second: B28
The binding signal of the first is higher: 0.0971 KA relative to UGCAUGU for the first, 0.0736 KA relative to UGCAUGU for the second.

First: B29
Second: B30
The binding signal of the first is higher: 0.101 KA relative to UGCAUGU for the first, 0.0737 KA relative to UGCAUGU for the second.

With B31 the binding signal was 0.0724 KA relative to UGCAUGU.
